Test results reported in ChEMBL document CHEMBL4888484, “Replenishing the malaria drug discovery pipeline: Screening and hit evaluation of the MMV Hit Generation Library 1 (HGL1) against asexual blood stage Plasmodium falciparum ,using a nano luciferase reporter read-out” (2022).
In all, about 150,000 compounds went through this assay and about 540 (0.36%) showed an effect of 50% or more. Some of the results follow.

System: Plasmodium falciparum
Assay: Primary screen in NF54 nanoGlo assay, in single point, at 2uM, 72h; a lower Z score goes with more inhibition
Assay type: functional, Erythrocyte
Conditions: timepoint 72 hour

SMILES | % Inhibition [%] | Z score
O=S(=O)(c1cccc2nsnc12)N1CC(n2cnnc2C2CC2)C1 | -5 | 0.77
COc1ccnc(C(=O)NCCCC[C@H]2CCCO2)c1 | -10 | 1.95
COc1ccc(C)cc1NC(=O)c1ccc2c(c1)CCCC2 | -33 | 3.84
Cc1nccc(-c2ccccc2)c1C(=O)NCc1cc2n(n1)CCCNC2 | -7 | 1.05
COCCN(Cc1cnn(C)c1)C(=O)Cc1ccccn1 | -11 | 1.68
CC(C)CNCc1ccc(Br)cc1 | 6 | -0.79
CCNC(=O)N1CC[C@@](F)(C(=O)NCc2ccccc2)C1 | -1 | 0.12
COc1cc([C@H]2CC(=O)Nc3c2ncn3-c2cccc(C(F)(F)F)c2)cc2c1OCO2 | -12 | 1.2
COC(=O)c1c(CN(C)[C@@H](C)c2cccnc2)nc2ccccc2c1-c1ccccc1 | 1 | -0.21
O=C(NCC(=O)N1CCc2ccccc2C1)N[C@H]1CCc2cn[nH]c2C1 | -22 | 2.33
CCc1ccc(S(=O)(=O)Nc2ccc(N3CCC(OC)CC3)cc2)s1 | -26 | 3.28
Cc1oncc1CNC(=O)Nc1cccs1 | -12 | 1.83
O=C1Nc2ccccc2[C@@H]1Cc1ccsc1 | -15 | 1.8
O=C(c1cnccn1)N1CCOc2ccc(CN3CCc4ccccc4C3)cc2C1 | -4 | 0.48
COc1cc2c(cc1OC)C(=O)N(Cc1ccccc1)C(=O)C2=O | -13 | 1.31
O=C(CCCn1cncn1)Nc1ccccc1-n1ccnn1 | -10 | 1.24
NC(=O)c1c(NC(=O)c2cccc3ccccc23)sc2c1CCCC2 | -22 | 2.94
CCc1sc(C(=O)N2CC[C@H](OCCN3CCCCC3)C2)cc1C | -6 | 0.87
CCOCCCC(=O)N[C@](C)(C#N)C1CCCCC1 | -13 | 1.75
Cn1cccc1CNC(=O)C1CCN(c2ncnc3[nH]cnc23)CC1 | -4 | 0.84
Cc1ccc2sc(C(=O)N3CC(OCC(=O)N(C)C)C3)cc2c1 | 36 | -4.89
CC(C)[C@H](NC(=O)Nc1cccc(C(F)(F)F)c1)C(=O)O | -12 | 1.39

SMILES | % Inhibition [%] | Z score
CC(CCc1ccccc1)NC(=O)NC1CCCCC1C (centres undefined) | -3 | 0.44
C=C(C)CN(CC)S(=O)(=O)c1cnn2ccccc12 | -3 | 0.4
CCCn1nccc1S(=O)(=O)N1CCNCC1 | -7 | 0.96
CN(Cc1ccncc1)[C@@H](c1ccc(F)cc1)c1ncccn1 | -18 | 1.51
CNC(=O)c1cnc(C=Cc2ccc(OCC(F)F)cc2)[nH]c1=O | -3 | 0.48
Cc1cnccc1C(=O)N1CCO[C@H]2CCC[C@H]21 | -3 | 0.46
COC(=O)c1c(CN2CCN(c3nccs3)CC2)nc2ccccc2c1-c1ccccc1 | -13 | 1.34
O=C(COc1ccccc1)NCC(=O)NC1CCCC1 | 4 | -0.72
Cn1c(N2CC[C@H](O)C2)nc2ccccc21 | -18 | 2.32
OC1(Cc2cc(-c3ccccc3)no2)CCN(Cc2ccc3nsnc3c2)CC1 | -6 | 0.95
O=C(C[C@@H]1NC(=O)NC1=O)NCc1cccnc1Oc1ccc(F)c(F)c1 | -8 | 0.85
CCCC[C@H](NC(=O)c1cc(=O)cc(C)[nH]1)c1cccnc1 | -14 | 1.5
COc1ccc(CN2C(=O)O[C@H]3CN(C(C)=O)C[C@H]32)cc1OC | -1 | 0.13
C[C@@H]1CCO[C@@H]1C(=O)N1CCCC(c2[nH]ncc2CN2CCCC2)C1 (some centres undefined) | 4 | -0.7
Cc1nnc(-c2ccc(S(=O)(=O)N3CCCCC3)o2)o1 | -11 | 1.48
CNc1ncccc1CN1C[C@H](N(C)C)C[C@H]1CO | 0 | -0.04
C[C@@]1(C(F)F)CN(C(=O)Nc2ccc(F)cc2N2CCOCC2)CCO1 | -1 | 0.24
c1cc2cc(N[C@H]3CCOC3)cnc2[nH]1 | -3 | 0.4
CN1CCC[C@@H]1COc1nc2ccccc2o1 | -4 | 0.52
O=C(CC1C=CCCC1)N1CCCC(n2ccc(C(F)(F)F)n2)C1 (centres undefined) | -10 | 1
CN(CCc1cccs1)C(=O)Nc1nnc2ccccn12 | 3 | -0.59
COCCN(CCCOc1ccc(C#N)cc1)CC(=O)N(C)C | 4 | -0.46

SMILES | % Inhibition [%] | Z score
O=C1C[C@H](C(=O)N2CCCC2)CN1CCc1c[nH]c2ccc(Cl)cc12 | 0 | -0.05
CO[C@H]1CS(=O)(=O)C[C@@H]1n1cnc2c(F)cccc2c1=O | 5 | -1.01
Cc1nn(Cc2ccccc2)c(=O)n1-c1ccc(Oc2ccccc2)cc1 | -5 | 0.79
Cc1ncsc1CCN1CCc2ccc(C(=O)O)cc2C1 | 11 | -1.93
CNc1nc(C(N)=O)c(NC(=O)CN2CCCCCC2)s1 | -4 | 0.77
CCCn1nnc2cc(S(=O)(=O)N3CCCC[C@H]3C(=O)NCCCN3CCCC3=O)ccc21 | -11 | 1.7
Cc1ccc(-c2noc3nc(C)cc(C(=O)Nc4ccccc4)c23)cc1 | -11 | 1.44
COc1cccc(C2(NS(=O)(=O)c3cnnn3C)CCOCC2)c1F | -1 | 0.11
C[C@@H](c1nnnn1C)N1CCc2cncnc2C1 | -7 | 0.61
COc1cccc([C@H](C)NC(=O)CC[C@@H]2NC(=O)NC2=O)c1 | -13 | 1.97
CCN(C)c1nc2cc(Cl)ccc2c2nnc(-c3ccccc3C)n12 | -6 | 1.03
Cc1cc(C)c2c(c1)-c1c(ssc1=S)C(C)(C)N2C(=O)Cn1nc(C)cc1C | 4 | -0.53
COc1cccc(CN[C@H]2CCCN(c3nc(C)c4cc(F)ccc4n3)CC2)c1OC | -11 | 1.38
Cc1cccc(OCC(=O)c2ccc3c(c2)N(Cc2ccc(C(=O)NCc4ccccc4)o2)C(=O)CO3)c1 | -8 | 0.77
Cc1ccnn1CCC(=O)N1CCCN(S(=O)(=O)N2CCCC2)CC1 | 12 | -2.32
C[C@]1(CO)[C@H]2Cc3sc(NC(=O)C4CCC4)nc3[C@@H](CC(=O)Nc3nccs3)[C@]2(C)CC[C@H]1O | -13 | 1.64
O=C(CCc1ccc(O)cc1)N1CC[C@@H]2CC[C@@]21c1cccnc1 | -7 | 1.03
Nc1nc(-c2cccs2)c(-c2cccs2)s1 | -10 | 2.01
C[C@]1(O)CCN(C(=O)c2cnc3c(c2)CCC3)C[C@H]1O | 7 | -0.7
COC(=O)c1cn(N)cc2c(O)nnc1-2 | 0 | -0.03
COc1ccc(-c2nn(-c3ccccc3)c3nc(C)cc(C(F)(F)F)c23)cc1 | 7 | -0.84
COc1cccc(NC(=O)O[C@@H]2CC[C@]3(C)C(CC[C@@H](O)[C@H]3CC(=O)N3CCC[C@H]3CO)[C@]2(C)CO)c1 (some centres undefined) | -1 | 0.16

SMILES | % Inhibition [%] | Z score
Nc1c2c(-c3ccccc3F)nc(NCCc3ccccc3)nc2nn1-c1ccc(Cl)c(Cl)c1 | -3 | 0.45
Cn1c(=O)sc2cc(NS(=O)(=O)c3ccc4c(c3)CCCC4)ccc21 | 13 | -1.71
O=C1NC(=O)[C@@H]2CN(c3nc4ccccc4s3)C[C@H]12 | -6 | 0.72
COc1ccccc1NC(=O)c1cccc(-n2ncc(C#N)c2N)c1 | -2 | 0.18
C=C(C)COc1cccc(CN2CCN(C(=O)c3nc[nH]n3)CC2)c1 | 18 | -2.58
CC(C)CCOC1CCN(C(=O)Cn2cnnn2)CC1 | 7 | -0.89
CCOc1cccc(Cc2noc([C@@H]3CCCN3c3nccs3)n2)n1 | 4 | -0.45
Cn1nc2nc(N3CCN(c4ccccn4)CC3)nc(-c3ccc(F)c(Cl)c3)c2c1N | -4 | 0.55
CC(C)[C@@](C)(O)CNCc1cc(O)cc(Cl)c1 | 11 | -2.29
CC(C)OCCN(C)C(=O)c1ccc(O)cc1F | -8 | 1.08
COc1cc(C)nc(N(C)Cc2scnc2C)n1 | 3 | -0.43
CCCC(C#N)(CCC)NC(=O)C[C@H]1CCCO1 | -9 | 0.93
CN(CC1CCCCC1)C(=O)Cn1cnnn1 | -10 | 2.06
CCCc1nc(C)sc1C(=O)OCC | -21 | 1.96
Cc1cc(S(=O)(=O)N2CC[C@]3(CCN(C)C3)C2)sc1C | -13 | 1.88
COc1ccc(C(=O)N[C@@](C)(CO)C(C)C)cn1 | -9 | 1.43
CC(c1nnnn1C)N1CCC(C)(O)C1 (centres undefined) | -5 | 0.92
CN(CCc1cnccn1)C(=O)N[C@H]1CCC[C@@H](C2CC2)C1 | 0 | -0.02
COC(=O)[C@H]1CCn2c(CCOc3ccccc3)nnc2C1 | 0 | 0.03
COc1ccc(OC)c(-c2n[nH]c(C3CCOCC3)c2NC(=O)C(C)C)c1 | -12 | 1.12
Cc1cnn(C2CN(Cc3nc(-c4ccoc4)no3)C2)c1 | -9 | 1.3
